# Assay results reported in the supplement of paper PMC8728848.
# Some of the results follow.
# How the values were obtained:
# Assay in all cases: glycan array binding signal (z-score within array); higher = stronger binding
# Conditions in all cases: glycan notation: IUPAC condensed, linker removed
# Neu5Ac(a2-8)Neu5Ac = molecular target: Neu5Ac(a2-8)Neu5Ac
# Method in brief: (§1)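 Negative Z-scores can be read as non-binding. The Z-score is calculated within each array and then averaged across arrays of one protein sequence at different concentrations or buffers and across linkers. Arrays, 3228 in all, were curated from the Consortium for Functional Glycomics database and kept only where the protein sequence was available.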
# [1] = molecular target: Neu5Ac(a2-8)Neu5Ac(a2-3)Gal(b1-3)GalNAc(b1-4)[Neu5Ac(a2-3)]Gal(b1-4)Glc
# Method in brief: as §1
# [2] = molecular target: Neu5Ac(a2-8)Neu5Ac(a2-3)Gal(b1-3)GalNAc(b1-4)[Neu5Ac(a2-8)Neu5Ac(a2-3)]Gal(b1-4)Glc
# Method in brief: as §1
# [3] = molecular target: Neu5Ac(a2-8)Neu5Ac(a2-3)Gal(b1-4)Glc
# Method in brief: as §1
# [4] = molecular target: Neu5Ac(a2-8)Neu5Ac(a2-3)Gal(b1-4)GlcNAc
# Method in brief: as §1
# [5] = molecular target: Neu5Ac(a2-8)Neu5Ac(a2-3)[Gal(b1-3)GalNAc(b1-4)]Gal(b1-4)Glc
# Method in brief: as §1
# [6] = molecular target: Neu5Ac(a2-8)Neu5Ac(a2-3)[GalNAc(b1-4)]Gal(b1-4)Glc
# Method in brief: as §1
# [7] = molecular target: Neu5Ac(a2-8)Neu5Ac(a2-8)Neu5Ac
# Method in brief: as §1
# [8] = molecular target: Neu5Ac(a2-8)Neu5Ac(a2-8)Neu5Ac(a2-3)Gal(b1-4)Glc
# Method in brief: as §1
# [9] = molecular target: Neu5Ac(a2-8)Neu5Ac(a2-8)Neu5Ac(a2-3)[Gal(b1-3)GalNAc(b1-4)]Gal(b1-4)Glc
# Method in brief: as §1
# [10] = molecular target: Neu5Ac(a2-8)Neu5Ac(a2-8)Neu5Ac(a2-3)[GalNAc(b1-4)]Gal(b1-4)Glc
# Method in brief: as §1
# [11] = molecular target: Neu5Ac(a2-8)Neu5Ac(a2-8)Neu5Ac(a2-8)Neu5Ac(a2-3)[GalNAc(b1-4)]Gal(b1-4)Glc
# Method in brief: as §1
# [12] = molecular target: Neu5Ac(a2-8)Neu5Gc(a2-3)Gal(b1-4)GlcNAc
# Method in brief: as §1
# [13] = molecular target: Neu5Ac(b2-6)Gal(b1-4)GlcNAc
# Method in brief: as §1
# Neu5Ac(b2-6)GalNAc = molecular target: Neu5Ac(b2-6)GalNAc
# Method in brief: as §1
# [14] = molecular target: Neu5Ac9Ac(a2-3)Gal(b1-3)GlcNAc
# Method in brief: as §1
# [15] = molecular target: Neu5Ac9Ac(a2-3)Gal(b1-4)GlcNAc
# Method in brief: as §1
# [16] = molecular target: Neu5Ac9Ac(a2-6)Gal(b1-4)GlcNAc
# Method in brief: as §1
# [17] = molecular target: Neu5Gc(a2-3)Gal(b1-3)GlcNAc
# Method in brief: as §1
# [18] = molecular target: Neu5Gc(a2-3)Gal(b1-3)[Fuc(a1-4)]GlcNAc
# Method in brief: as §1
# Neu5Gc(a2-3)Gal(b1-4)Glc = molecular target: Neu5Gc(a2-3)Gal(b1-4)Glc
# Method in brief: as §1
# [19] = molecular target: Neu5Gc(a2-3)Gal(b1-4)GlcNAc
# Method in brief: as §1
# [20] = molecular target: Neu5Gc(a2-3)Gal(b1-4)GlcNAc(b1-3)Gal(b1-4)GlcNAc(b1-2)Man(a1-3)[Neu5Gc(a2-3)Gal(b1-4)GlcNAc(b1-3)Gal(b1-4)GlcNAc(b1-2)Man(a1-6)]Man(b1-4)GlcNAc(b1-4)GlcNAc
# Method in brief: as §1
# [21] = molecular target: Neu5Gc(a2-3)Gal(b1-4)[Fuc(a1-3)]GlcNAc
# Method in brief: as §1
# [22] = molecular target: Neu5Gc(a2-6)Gal(b1-4)GlcNAc
# Method in brief: as §1
# Neu5Gc(a2-6)GalNAc = molecular target: Neu5Gc(a2-6)GalNAc
# Method in brief: as §1
# [23] = molecular target: Neu5Gc(a2-8)Neu5Ac(a2-3)Gal(b1-4)GlcNAc
# Method in brief: as §1
# [24] = molecular target: Neu5Gc(a2-8)Neu5Gc(a2-3)Gal(b1-4)GlcNAc
# Method in brief: as §1
# [25] = molecular target: Neu5Gc(a2-8)Neu5Gc(a2-3)Gal(b1-4)GlcNAc(b1-3)Gal(b1-4)GlcNAc
# Method in brief: as §1
# [26] = molecular target: Neu5Gc(a2-8)Neu5Gc(a2-6)Gal(b1-4)GlcNAc
# Method in brief: as §1
# [27] = molecular target: Neu5Gc(b2-6)Gal(b1-4)GlcNAc
# Method in brief: as §1
binder,measurement,setting,value
CaSRK1 (Capsicum annuum) (protein) MALCKIFPFAFILLSCSCYLISGQRFDYPTANLSTTWINSVSAPHSIDYTDGSRIRAILLRGTFGPRYACGFYCNGNCESYLFAIFIVQTNSASQITSPAIGFPQVVWSANRNNPVKINSTLQLTAEGDLVLRDADGTLAWSTNTAGKSVAGLSLTDEGNLALFDSKNATVWQSFDHPTDALVPGQKLVPGMKLTASVSRTNWTAGGLFALSAIDNGLVAFVESNPPQKYFEASVGGSNTSGGSNYVKYLNGSLTLFTHSADTTELILISITPASSAQYMKLESNGHLKVYEWTSRGWREVDDLLTGFRGECNYPTVCGRYGICTMGQCSCPTSSSSRTYFRPIDVRRPSLGCSEVTKLTCQNTKKHSPLEVEDVDYFAFKAGISDTDLNTCKRACLEKCSCKAAFFRSGLNSSRTRGDCYLPTEIFSIMNNEKDRTRYDSVAFIKVQV,glycan array binding signal (z-score),Neu5Ac(a2-8)Neu5Ac,-0.408
same,glycan array binding signal (z-score),[1],-0.496
same,glycan array binding signal (z-score),[2],1.3
same,glycan array binding signal (z-score),[3],0.045
same,glycan array binding signal (z-score),[4],-0.39
same,glycan array binding signal (z-score),[5],-0.25
same,glycan array binding signal (z-score),[6],-0.56
same,glycan array binding signal (z-score),[7],-0.518
same,glycan array binding signal (z-score),[8],-0.573
same,glycan array binding signal (z-score),[9],0.411
same,glycan array binding signal (z-score),[10],-0.587
same,glycan array binding signal (z-score),[11],-0.413
same,glycan array binding signal (z-score),[12],-0.28
same,glycan array binding signal (z-score),[13],-0.465
same,glycan array binding signal (z-score),Neu5Ac(b2-6)GalNAc,-0.495
same,glycan array binding signal (z-score),[14],1.15
same,glycan array binding signal (z-score),[15],-0.344
same,glycan array binding signal (z-score),[16],-0.543
same,glycan array binding signal (z-score),[17],-0.291
same,glycan array binding signal (z-score),[18],-0.319
same,glycan array binding signal (z-score),Neu5Gc(a2-3)Gal(b1-4)Glc,3.18
same,glycan array binding signal (z-score),[19],-0.416
same,glycan array binding signal (z-score),[20],0.084
same,glycan array binding signal (z-score),[21],0.49
same,glycan array binding signal (z-score),[22],0.036
same,glycan array binding signal (z-score),Neu5Gc(a2-6)GalNAc,-0.311
same,glycan array binding signal (z-score),[23],-0.438
same,glycan array binding signal (z-score),[24],-0.396
same,glycan array binding signal (z-score),[25],-0.123
same,glycan array binding signal (z-score),[26],-0.509
same,glycan array binding signal (z-score),[27],-0.486
